Measured values: the RNAGym collection of RNA variant scans (doi:10.7554/elife.90254)
The source gives no read counts; variants with many changes may rest on few reads.

B1: LINE1-mini (parent)
chain: GGCAGAGCUCAACACAGCGUGGCAAAGUGGCUGUGGCUAGACUGCC

Variants of: B1
Assay: self-cleavage, relative activity (ratio to wild type); higher = more cleavage; in vitro, sequencing; the parent is a self-cleaving ribozyme

Variant | self-cleavage
GGCAGAGCUCAACAUAGCGUGCCAAAGUGGUUGUGACUAGACUGAC [C15U G22C C31U G36A C45A] | 0.03
GUCAGAGUUCAACACAGCGUAGCAAAGUGGCUGUGGCUAGACUGCC [G2U C8U G21A] | 0.18
GGCCGAGGUCAACACAGUGUGGCAUAGUGGCUGUGGCUAGACUGCC [A4C C8G C18U A25U] | 0.01
GGCAGAGCUCAACACAGCGUUGCAAAGUGGCUGUGUCCAGACUGCC [G21U G36U U38C] | 0.02
GGCAGAGGUCACCACAGCGUGGCAAAGUGGCUGUAGGUAAACUGCU [C8G A12C G35A C37G G40A C46U] | 0.01
GGACGAGCUCAACAUAGCGUGGCAAAGUGGCUGCGGCUAGACUGCU [C3A A4C C15U U34C C46U] | 0.06
GGCCGAGCUGAACACAGCGCGGCAAAGUGGCUGUGGCUACACUGCC [A4C C10G U20C G40C] | 0.01
AGCAGAGCUCAACACAACGUGGCAAAGUGGCUGUGGCUAGACUACC [G1A G17A G44A] | 0.05
GGCAGAUAUCCACACAGCGUGGCGAAGUGGUUGAGGCUAGACUGCA [G7U C8A A11C A24G C31U U34A C46A] | 0.01
GGCAGAGCAUAGCACAGCGUGGCAUAGUGCCUGAGGCUAGACUGCC [U9A C10U A12G A25U G30C U34A] | 0.01
GGCAGAGCUCGACACAGCGUGGCAAAGGGGAUGUGGCUAGACUGCC [A11G U28G C31A] | 0.13
GGCAUAGCACAGCACAGCGUGGCAAAGUGGCUGUGGCUAGACUGCC [G5U U9A A12G] | 0.03
GGCAGAGCUCAACGCAGAGUGGCAAAGCUUCUGUGGCUAGACUGCC [A14G C18A U28C G29U G30U] | 0.3
GGCAGAGCUCAACACAGCGUGACAAAAUGGAUGUGGCUAGACUGCC [G22A G27A C31A] | 0.56
GGCCCAGCUCAACUCAGCGUGCCAAAGUGGCUGUGGCUAGACUGCC [A4C G5C A14U G22C] | 0.01
GGCAGAGCUGAAGACAGCCUGGCAAAGUGGUUGUGGCUAGACUGCC [C10G C13G G19C C31U] | 0.02
GGCAGAGCUCAACACAGCGUGGCAGAGUGGCUGUGGCUAGAGCGCC [A25G C42G U43C] | 0.05
UGCACAGCUCAACACAGCGUGGCAAAGUGGCUGUGGCUAGAUUGCC [G1U G5C C42U] | 0.03
GGCAGAACACAACACAGUGUGGCAAAGUGGCUGUGGCUAGACUGCC [G7A U9A C18U] | 0.24

Variant | self-cleavage
UGGAGAGCUCAACGCAGCGUGGCAAAGUGGCUGUGGCUAGACUGCC [G1U C3G A14G] | 0.25
GGCAGAGCACAACACAGGGAGGCAAAGUGGCUGCGGCGAUACUGCC [U9A C18G U20A U34C U38G G40U] | 0.05
GUGAGAGCACAACACAGCGUGGCAAAGAGGCUGUGGCUAUACUGCC [G2U C3G U9A U28A G40U] | 0.27
GGCAGAACUCAACACAGCGUGGCAUAGUGGCUGGGGCCAGACUGCU [G7A A25U U34G U38C C46U] | 0.09
GGCAGAGUUCAACACAGCGUGGCAAAGAGGCUGUGGCCAGACUGCC [C8U U28A U38C] | 0.27
GGCAGAGCUCAACACAGAGUGCCAAAGUGGGUGUGGCUAGACUGCC [C18A G22C C31G] | 0.03
GGCAGAGCUCAACACAGCGUGGCAAAGUGGAUGUCGCUAGAUUGCC [C31A G35C C42U] | 0.08
GGCAGAGCACAACACAGCGUGGCAAAGUCGAUGUGGCUAGACUGCC [U9A G29C C31A] | 0.08
GGCAGAGCUAACCACAGCGUGGCAAAGUCGGUGUGGCUAGACUGCC [C10A A12C G29C C31G] | 0
GGCGGGGCUCAACACAGCGCGGCAAAGGGGCUGUGGCUAGACUGCC [A4G A6G U20C U28G] | 0.05
GGCAGAGCUAAACUCAGCGUGGCAAAGUGGGUGUGGCUAGACUGCC [C10A A14U C31G] | 0.02
GGCAGUGCUCAACACAGCGGGGCAAAGUGGAUGUGGCUAGCCUGCC [A6U U20G C31A A41C] | 0.06
GGCAGAGCUAAACACAGCGUGUAAAAGUGGCUGUGGCUAGACUGCC [C10A G22U C23A] | 0.04
GGCAGAGCUGAACACAGCGUGGCAAAGUGGAUGUGGCUAGAAUGCC [C10G C31A C42A] | 0.01
GGCAGAGCUCAACACAGCGAUGCCAAGUGGAUGUGGCUAUACUGCC [U20A G21U A24C C31A G40U] | 0.03
GGCAGAGCUCAACACAGCGUGGCAAAGAGGGUGUGGCUAGACUGUC [U28A C31G C45U] | 0.2
GACAGAGCGCAACACAGCGUGGCCAAGUGGCUGAGGCUAGAAUGCC [G2A U9G A24C U34A C42A] | 0.04
GGCAGAGCUCAACACAGCGUGGCAAAGUGGGUGUGGAUAGCCUGCA [C31G C37A A41C C46A] | 0.01
GGCAGAGCUCAACACAGCGUGGCAAAGUGGCAGUGGAUAGACAGCC [U32A C37A U43A] | 0.08

Variant | self-cleavage
GGCGGAGCUCAACACAGCGUGGCAAAGUGGCUGUGGCUUGACUCCC [A4G A39U G44C] | 0.04
GCCAGAGCUCAAAACAGGGUGGCAAAGUGGCUGUGGCUAGACUGCC [G2C C13A C18G] | 0.05
GGCAGAGCUCAACACAGCGUGUCAAAGUGGUUAUGGAUAGACUGCC [G22U C31U G33A C37A] | 0.05
UGAAGAGCUCAACACAGGGUGGCAAAGUAGCUGUGGCUAAACUGCC [G1U C3A C18G G29A G40A] | 0.33
GGCAGAUCGCAACACAGCGUGGCAAAGUGGCUGUGGUUAGACUGCC [G7U U9G C37U] | 0.03
GGCAAAUGUCAACACAGCGAGGCAAAGUGGCUGUGGCUAGACUGCC [G5A G7U C8G U20A] | 0.15
GGCAGUGCUCAACACAGAGUGGCAAAAUGGCUGUGGCAAGACUGCC [A6U C18A G27A U38A] | 0.33
GGCAGACCUCAACACAGCGUGGCAAAGUGGCUGUGACUAUACUGCC [G7C G36A G40U] | 0.69
GGCAGAGCUCAACACAGCGUGGCAAAGUGGCUGUUGCUGAACUGCC [G35U A39G G40A] | 0.03
GGCAUAGCACAACACAGCGUGGCAAAGUGGCUAUGGCUAGACUGCC [G5U U9A G33A] | 0.32
GCCAGAGCUCAACACAGCGUGGCAAAGUGGUUGUGGAUAGACUGAC [G2C C31U C37A C45A] | 0.04
GGCAGAACUCAACCCAGCGUGGCAAAGUGGCUGUGGCUAGCCUGCA [G7A A14C A41C C46A] | 0.03
GGCAGAGGUCAUCACAGCGUGGCAAAGUGGCUGUGUCUCGACUGCC [C8G A12U G36U A39C] | 0.1
GGCAGAGCUCAACAUGGCGUGGCAAAGAGGAUGUGGCCAGACUGCC [C15U A16G U28A C31A U38C] | 0.04
GACAGAGCUCAACAUAGCGUGCCACAGUGGCUGUGGCUAGACUCCC [G2A C15U G22C A25C G44C] | 0.1
GCCGGAGCUCAAUACUGCGUGCCAAAGUGGCUGUGGCUAGACUGCC [G2C A4G C13U A16U G22C] | 0.02
GGCAGAGCCCAACACAGCGUGGCACAGUGGCUGUGGCUAGUCUGCC [U9C A25C A41U] | 0.02
GUCAGAGCUCAACACAGCGUGGCAAAGUGGCCGUGGCUAGACUGUA [G2U U32C C45U C46A] | 0
